Reference: PubChem BioAssay AID1745853 (National Center for Advancing Translational Sciences (NCATS), 2022)
The other results are listed elsewhere or left out. Shown are side measurements of this screen, not its main read-out; they come without a call.

Assays:
Experiment in all cases: Primary Screen for Target Class Profiling of Small Molecule Inhibitors of Methyltransferases
[1] = molecular target: Glycine N-methyltransferase (Homo sapiens) (UniProt Q14749); conditions: purified enzyme, MTase-Glo SAH luminescence; measured here: GNMT inhibition; at 40 µM; stronger effect = lower value
In short: (§1)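 Each enzyme was assayed with SAM and its substrate. SAH formation detected by MTase-Glo luminescence; single-point 40 uM screen[…].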

[2] = molecular target: Guanidinoacetate N-methyltransferase (Homo sapiens) (UniProt Q14353); conditions: purified enzyme, MTase-Glo SAH luminescence; measured here: GAMT inhibition; at 40 µM; stronger effect = lower value
In short: as §1

[3] = molecular target: Histamine N-methyltransferase (Homo sapiens) (UniProt P50135); conditions: purified enzyme, MTase-Glo SAH luminescence; measured here: HNMT inhibition; at 40 µM; stronger effect = lower value
In short: as §1

[4] = molecular target: Nicotinamide N-methyltransferase (Homo sapiens) (UniProt P40261); conditions: purified enzyme, MTase-Glo SAH luminescence; measured here: NNMT inhibition; at 40 µM; stronger effect = lower value
In short: as §1

[5] = molecular target: Phenylethanolamine N-methyltransferase (Homo sapiens) (UniProt P11086); conditions: purified enzyme, MTase-Glo SAH luminescence; measured here: PNMT inhibition; at 40 µM; stronger effect = lower value
In short: as §1
% is scaled to controls: 0 for no effect and ±100 for the full control effect.

Compound	activity change, negative = inhibition [1] [%]	activity change, negative = inhibition [2] [%]	activity change, negative = inhibition [3] [%]	activity change, negative = inhibition [4] [%]	activity change, negative = inhibition [5] [%]
O=C(NC1CCCCC1)c1ccc2oc(-c3ccnc(Cl)c3)nc2c1	-10	0.144	-0.181	-3.25	1.72
CC(C)OCCCn1c(=O)c2ccccc2n2c(CCC(=O)N3CCN(c4ccccn4)CC3)nnc12	-15.4	-0.403	-19.4	-4.26	-1.45
COc1ccc2c(c1)C(C(=O)N(Cc1ccc(N(C)C)cc1)c1ccc(C(C)C)cc1)CCC2 (stereo not given)	-1.04	-16.4	1.02	-32.3	-6.53
CCc1ccc(NC(=O)Cn2nc3n(CCCOC(C)C)c(=O)c4ccccc4n3c2=O)cc1	6.61	0.906	7.98	5.04	6.92
CCCOc1c(CN2CCCNCC2)cc(Cl)cc1OC	-2.67	0.792	-1.52	-5.41	-8.56
Cc1ccc(S(=O)(=O)NC[C@H]2OC[C@@H](NCc3ccc(S(C)(=O)=O)cc3)[C@@H]2O)cc1	-0.245	3.15	2.02	-3.71	13.9
CN1C(=O)N(C)C2(CCN(CCOc3ccccc3)C2)C1=O (stereo not given)	-2.16	-0.688	1.25	-7.18	-2.78
Cc1cccc(N2CCN(C(=O)CCc3nnc4n(CCCOC(C)C)c(=O)c5ccccc5n34)CC2)c1C	-17.4	1.76	-0.016	-19.3	-4.91
COc1ccc2cc3n(c2c1)CC(C)(C(=O)NC1CCCCC1)N(CCN1CCCCC1C)C3=O (stereo not given)	1.43	-0.925	3.13	-1.59	-1.76
COc1ccc(C)cc1NC(=O)N1CCn2cccc2C1Cc1ccccc1 (stereo not given)	10.1	0	9.81	4.81	3.87
CCNC(=O)N1CC[C@H]2CC(=O)N(CCc3cccc(OC)c3OC)CC[C@H]2C1	-1.24	0.424	2.09	0.526	-1.75
CN(C)c1ccc(CN2C(=O)c3nc4ccccc4n3CC2(C)C(=O)NCc2ccccc2)cc1 (stereo not given)	2.28	0.926	1.98	3.64	0.75
CN(C)c1nc2c(c(=O)[nH]1)CCN(Cc1ccsc1)CC2	-2.62	-2.4	0.746	-0.446	15.1
O=C(CC1CCOC2(CCN(Cc3cccs3)CC2)C1)NC1CC1 (stereo not given)	-2.53	2.94	2.17	-2.36	-9.96
CN(C)C[C@@H]1CN(c2ccccn2)C[C@H]1NC(=O)NC(C)(C)C	-0.623	-3.04	1.07	-2.56	0.151
CCCn1c(=O)c2ccc(C(=O)NC3CCCC3)cc2n2c(SCC(=O)NC3CCCC3)nnc12	1.54	4.39	2.62	2.91	2.02
CCNC(=O)[C@@H]1C[C@H](n2cc(CN(C)C(=O)NC3CCCCC3)nn2)CN1	-7.92	-10.5	-4.57	-15.8	-11.8
CC(C)S(=O)(=O)NC[C@@H]1CC(c2ccc(N3CCCC3)c(F)c2)=NO1	-5.02	4.23	-11.2	-12.1	-6.86
COc1nccnc1NC1CCN(C(=O)NC2CCCC2)CC1	-1.02	2.18	1.85	-5.37	14.5
COc1ccc(CN2CCN(C(c3ccc(F)cc3)c3ccc(F)cc3)CC2)c(OC)c1OC	1.18	-9.64	5.85	-22.8	-4.02
O=C(CCCn1nc(-c2ccccc2)c2cc(Cl)ccc21)N1CCN(c2ccccn2)CC1	-2.78	0.821	8.82	-7.89	2.7
Clc1ccc2c(c1)C1=NCCN1c1c(-c3noc(C4CC4)n3)ncn1-2	-13	-3.8	5.24	-23.9	-2.4
COCCCn1c(C)cc(C(=O)N2CCCC(c3[nH]ccc3C(N)=O)C2)c1C (stereo not given)	-7.73	-2.85	-1.47	0.734	-7.54
CN(C)CC(O)c1cc2n(n1)CCN(C(=O)c1cc(=O)[nH]c(=O)[nH]1)C2 (stereo not given)	-4.89	-10.5	-3.67	-14.1	-10.4
Cc1ccc(C)c(Nc2nn3c(=O)c4ccc(C(=O)NC5CCCCC5C)cc4nc3s2)c1 (stereo not given)	1.27	0	-2.87	-2.38	-2.02
CC1(C(=O)NC2CCCCCCC2)Cn2c(cc3occc32)C(=O)N1CCN1CCOCC1 (stereo not given)	5.51	-0.067	3.59	5.77	-0.055
Cc1ccc(Cn2c(=O)c3ccc(C(=O)NCC(C)C)cc3n3c(=O)n(Cc4ccccc4)nc23)cc1	10.3	2.33	12.4	9.42	9.38
FC(F)(F)c1ccc(CN2CCCC3(CC(c4ccccn4)=NO3)C2)cc1 (stereo not given)	-2.85	0.322	0.448	-11.9	7.04
COc1ccc(C(=O)N2CCn3nc(C(O)CS(C)(=O)=O)cc3C2)cn1 (stereo not given)	-4.99	-12.4	-4.8	-16.3	-12.3
O[C@@H]1CO[C@H]2[C@@H]1OC[C@@H]2n1nnnc1Sc1ncccn1	-1.29	2.82	2.32	1.57	3.32
